Measurements reported in the supplement of paper PMC3334620.
In all, about 33,000 sequences were measured (“E-score (-0.5 to 0.5)”: median about -0.036, highest 2% from about 0.37 on). The list shows a part of the results.

Target: T1, Yer064c (UniProt P40041)
T1 sequence: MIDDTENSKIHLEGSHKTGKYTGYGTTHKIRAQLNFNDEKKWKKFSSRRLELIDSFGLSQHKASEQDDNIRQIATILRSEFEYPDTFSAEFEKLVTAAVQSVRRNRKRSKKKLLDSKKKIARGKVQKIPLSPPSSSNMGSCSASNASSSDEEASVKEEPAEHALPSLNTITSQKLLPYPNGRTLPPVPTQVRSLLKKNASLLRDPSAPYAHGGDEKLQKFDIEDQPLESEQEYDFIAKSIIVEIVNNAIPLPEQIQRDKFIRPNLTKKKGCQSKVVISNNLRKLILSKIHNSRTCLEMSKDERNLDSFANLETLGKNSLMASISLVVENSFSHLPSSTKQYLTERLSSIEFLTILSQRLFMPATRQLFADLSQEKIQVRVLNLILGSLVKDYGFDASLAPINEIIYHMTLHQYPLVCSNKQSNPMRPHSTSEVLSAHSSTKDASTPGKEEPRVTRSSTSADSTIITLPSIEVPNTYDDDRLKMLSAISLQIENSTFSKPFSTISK
Test: PBM E-score (8-mer binding enrichment) (E-score (-0.5 to 0.5)); higher = stronger / more preferred TF binding; most listed sequences are background and not binding sites
Details: protein concentration: 200 nM; construct: GST-full length
Method in brief: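 Bound GST-tagged yeast transcription factors, applied at about 100-200 nM to double-stranded universal all-10-mer Agilent arrays, were detected with fluorescent anti-GST. Scans were normalised with masliner. A modified Wilcoxon-Mann-Whitney statistic, the E-score, was assigned to each ungapped eight-base word pooled with its reverse complement by the Universal PBM Analysis Suite.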

Sequence	PBM E-score
AGCCATAA	0.186
AGACATCC	0.189
GAGACTTA	0.24
AAGCGTAA	-0.0511
CTCCATGA	0.134
CAATTGAA	-0.198
GTTATGAA	-0.13
ACGTGCAG	-0.194
CCGTTGCA	-0.0729
ACCTACCG	-0.192
CGCTGAAG	0.00255
AACTCCTT	-0.00991
CTGGATGC	-0.189
ATCAATTG	0.121
GCCACCCA	-0.051
CTCTTTGA	0.0535
ACCTCGCG	0.00016
ATGAAGGA	0.0837
AAGAATCG	0.0843
GACAACGC	-0.208
CCTGATGA	0.104
AGCGTCAG	-0.0539
ACTTCGTA	0.00344
ACTTACCC	0.201
TAAGCCGA	0.0556

Sequence	PBM E-score
AAGTGAGC	0.0966
ACGACCTG	0.0259
CCCACACA	-0.217
GGGGATGA	0.0364
CAAACAAC	0.121
ATAAACCC	0.151
ACTTCTGA	0.191
GTAAGCTA	-0.0372
ACTACCTC	0.102
CACAAAAA	0.102
ATATGAAG	-0.0157
CACTAGCC	0.082
ATGTGCAA	-0.01
CATACCAG	0.0548
GCTGGTTA	0.0367
ATGTCGCC	-0.162
AAAGTTAG	0.173
TAAGTAAA	0.177
AGGAAATG	-0.0289
AACAGCTC	-0.0521
GCGCCCCA	-0.229
AGCAGGTG	-0.22
ACGATTAT	0.103
AACCGCCT	0.082
ACAGTTTG	-0.275

Sequence	PBM E-score
CAGTTGCG	0.0733
AAGCTAAA	-0.0363
AGCGGGCA	-0.02
ATTTTGAG	0.243
CGGTCACC	-0.0952
CAAGCCAG	-0.139
AGCCTATC	-0.028
CAAATGGA	0.0747
ACTGTACG	0.00106
ATAACGTG	-0.112
ACACTGGT	-0.098
AATCCACC	0.0457
CGAGCCAG	0.115
CCGTACAA	0.0328
CGTGCTCC	-0.197
GCTCCATA	-0.235
ACCCCGGG	-0.152
GGGAGTCA	0.477
ATTATCGG	0.032
GACAGAAC	-0.091
ACCCCATG	-0.151
ATAACCAT	0.136
CTGCAAGA	0.0764
CAAAGAAA	0.153
TTCCGGAA	-0.124

Sequence	PBM E-score
GACTCTCC	0.411
AAATCCGT	-0.139
GACTGACA	0.298
AAGCTACT	-0.0193
AGAGTCCA	0.262
ATTCGGTG	0.0151
ACCTTGCG	-0.129
CTACCGGC	-0.115
CAATGAGC	-0.113
AAGTCATT	0.454
AGAGGTAG	-0.265
TATAAAAA	0.202
AGTCGCCC	0.403
ACCGCTAC	-0.142
CGAGCCCA	0.0412
CGGCGTCC	-0.164
GTAAAACA	-0.0301
AGTAGTTA	0.112
CTCGAGAA	0.106
CGCTATGA	0.181
ATGCTAGG	-0.18
AGTCGGAT	0.282
CGGCATCA	-0.242
GCTGGTAA	0.106
ATAAGGAT	-0.0841

Sequence	PBM E-score
CGTAATGA	0.0697
CTTGAAGA	0.135
ACAGCTTA	0.0266
ACTATACA	0.0522
TAATATGA	0.209
CGAGGGTA	-0.154
TGATCCAA	0.0557
AAGTGGCC	-0.33
ATTGCGTA	0.102
AATGACGT	-0.00627
ATAGCTAT	0.0423
CATCCGCG	-0.111
AAGTACTA	0.0859
GTCTGACA	0.195
ACGCGTCA	0.111
GAATCCGC	0.00832
ACCCAGGG	-0.187
TAACATCA	0.156
CCGACCGC	-0.317
TAGGACGA	0.131
AGACCGTG	-0.0409
ACGTGAGC	-0.0418
AATCTACT	0.0949
GCATCGAA	-0.284
GCATCACA	-0.114

Sequence	PBM E-score
GTCTTGCA	0.0404
AGCTCGCC	-0.063
ATTCGTGG	0.186
CTGCGGGA	-0.0999
GCCTACAC	-0.141
CGAAACAG	0.0527
TGCGTGAA	0.00044
AACACCGA	-0.126
AAGGGGTA	-0.176
GCTACCAC	-0.0822
CAGCTGTC	-0.00962
AGGTGCAT	-0.109
AGACATGC	0.0914
AACTCTCC	-0.159
AAACTCAT	0.286
AGCCACAC	0.112
CGACTACG	0.337
CTGATACA	0.0545
CGCAGATC	-0.143
CGAGTCAA	0.444
TAAACTCA	0.201
CGGCGCCG	-0.125
ATGCATGA	0.166
CTAGACTC	0.212
AAGCCTAA	-0.0456

Sequence	PBM E-score
CAATTGTG	0.0199
AAGTCTCC	0.107
CATGAGCA	-0.00331
ATACCGTC	-0.126
CTTCATTA	0.119
CGACATGA	0.231
TAGCTTCA	-0.2
GGACCAAC	-0.131
AGCTGACG	-0.134
ATATTCTA	0.0462
CGAGGTAC	0.0931
AAATGGGC	-0.187
CTACTTCC	-0.0232
TAGTGATA	-0.161
CATATGTA	0.0706
CTGTCCTC	-0.159
ACGCTACG	-0.135
GACGTAGC	-0.183
GTATGTGA	0.204
CGTAAACA	-0.0207
GTCAGGTA	0.199
ATAGAGCA	-0.176
ACACCCAG	-0.0229
TCCCTTCA	0.091
AACATCGG	-0.223

Sequence	PBM E-score
CTATCCAA	0.0707
AATAAGGG	-0.169
AGCATCTA	-0.197
GGCACCTA	-0.227
CACATCGG	0.122
AGTAATTC	-0.0585
AGTCGAGC	0.0697
AAACATTG	-0.0364
AGAGAATA	0.0687
GCAGCCTA	-0.315
GTGCATTA	-9e-05
TGTATACA	0.112
CGAATCCA	-0.00595
ATTTAAGC	-0.0436
ACTTTGAC	0.292
ATGAAGCA	-0.183
AACCCAAC	0.0746
ACTAGAAA	0.118
GATTCCTA	0.27
TAGTCCCA	0.201
CATTAGCG	-0.0726
AGCGCATG	-0.108
AGAGATGA	0.268
ATGCTCAG	-0.00028
AGCAGAAA	-0.0226

Sequence	PBM E-score
CTCAATAC	0.101
GTTCATGA	0.282
CATTTTGC	-0.0161
CATCAACC	0.159
GGTCAACA	0.186
AACCAGCG	-0.179
AGGGATAC	-0.299
CCTTTTCC	-0.258
GTTGCTGA	0.197
ACAAACAC	0.0393
AAACGAAC	-0.00696
CGCTACCA	-0.2
GGAGATGA	0.246
TACGAGCA	-0.156
GGTGATGA	0.191
CAACACCA	-0.0115
GACCTCTA	-0.0732
CAAGTAGG	-0.0276
AAACACGC	-0.181
